{"source": "paper PMC4336329", "about": "(PLoS ONE, 2015)", "note": "Hit rate of the full screen: of about 310,000 compounds, about 2,200 (0.71%) showed an effect of 50% or more. The effect is printed as a negative number. The list shows a part of the results.", "data": [{"target": "human ether-à-go-go-related gene (hERG) potassium channel (human, UniProt Q12809)", "sequence (Q12809 whole entry, looked up)": "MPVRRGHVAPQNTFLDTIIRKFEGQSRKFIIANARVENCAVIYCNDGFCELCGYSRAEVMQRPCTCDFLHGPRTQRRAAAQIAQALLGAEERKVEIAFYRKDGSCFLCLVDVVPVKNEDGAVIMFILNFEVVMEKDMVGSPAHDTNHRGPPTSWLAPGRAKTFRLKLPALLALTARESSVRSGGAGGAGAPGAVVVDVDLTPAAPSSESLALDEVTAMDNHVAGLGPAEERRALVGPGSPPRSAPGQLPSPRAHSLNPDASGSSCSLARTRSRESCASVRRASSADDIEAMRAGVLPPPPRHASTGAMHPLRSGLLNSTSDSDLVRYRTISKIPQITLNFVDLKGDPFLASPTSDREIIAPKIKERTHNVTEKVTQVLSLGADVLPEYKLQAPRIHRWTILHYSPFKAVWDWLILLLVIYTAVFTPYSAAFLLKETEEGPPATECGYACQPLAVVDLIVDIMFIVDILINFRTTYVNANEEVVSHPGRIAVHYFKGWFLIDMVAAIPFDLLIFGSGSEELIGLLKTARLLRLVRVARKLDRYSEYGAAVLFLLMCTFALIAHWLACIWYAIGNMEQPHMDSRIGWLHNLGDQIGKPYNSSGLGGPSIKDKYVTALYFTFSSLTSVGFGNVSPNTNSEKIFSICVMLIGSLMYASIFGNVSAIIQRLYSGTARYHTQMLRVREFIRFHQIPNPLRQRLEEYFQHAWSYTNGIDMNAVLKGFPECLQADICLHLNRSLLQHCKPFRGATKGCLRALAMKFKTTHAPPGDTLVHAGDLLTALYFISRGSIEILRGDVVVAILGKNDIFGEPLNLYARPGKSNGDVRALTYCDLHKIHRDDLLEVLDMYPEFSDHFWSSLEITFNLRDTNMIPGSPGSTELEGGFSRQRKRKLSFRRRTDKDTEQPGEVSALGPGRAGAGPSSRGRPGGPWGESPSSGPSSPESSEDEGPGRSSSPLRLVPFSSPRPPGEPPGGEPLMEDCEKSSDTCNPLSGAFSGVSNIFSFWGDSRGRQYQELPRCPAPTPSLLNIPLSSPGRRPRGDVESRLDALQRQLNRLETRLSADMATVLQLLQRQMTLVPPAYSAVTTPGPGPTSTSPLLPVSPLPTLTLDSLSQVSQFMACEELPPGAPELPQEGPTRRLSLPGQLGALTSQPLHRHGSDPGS", "assay": "primary screen, population patch clamp on CHO cells stably expressing hERG", "units": {"hERG current change (%, negative = inhibition) at 1uM": "%"}, "values": [{"compound": "COC(=O)c1ccc(COc2ccccc2/C=N/O)o1", "hERG current change (%, negative = inhibition) at 1uM": 10.7}, {"compound": "COc1ccccc1N1CCN(Cc2cc(Br)c(O)c3ncccc23)CC1", "hERG current change (%, negative = inhibition) at 1uM": 11.2}, {"compound": "CCOc1ccc(OCc2ccc(C(=O)NC(C)C)o2)cc1", "hERG current change (%, negative = inhibition) at 1uM": 12.3}, {"compound": "CCOc1ccc(CN(CCO)CCO)cc1C(=O)OC", "hERG current change (%, negative = inhibition) at 1uM": 4.8}, {"compound": "Cc1ccc(NC(=O)c2ccoc2C)cc1C", "hERG current change (%, negative = inhibition) at 1uM": 6.59}, {"compound": "CCOc1cc(S(=O)(=O)N(CC)CC)ccc1Br", "hERG current change (%, negative = inhibition) at 1uM": 8.03}, {"compound": "Cc1ccc(NC(=O)CN2CCc3cc4c(cc3C2C)OCCCO4)cc1C", "note": "(centres unmarked)", "hERG current change (%, negative = inhibition) at 1uM": 13.6}, {"compound": "CCOC(=O)c1c(N2CCCCC2)c2ccccc2[nH]c1=O", "hERG current change (%, negative = inhibition) at 1uM": 15.4}, {"compound": "COc1ccc(C(=O)Nc2nc(C)cs2)cc1S(=O)(=O)N1CCCC1", "hERG current change (%, negative = inhibition) at 1uM": 10.3}, {"compound": "O=C(Nc1cccc(NC(=O)c2ccccc2[N+](=O)[O-])c1)c1ccccc1Cl", "hERG current change (%, negative = inhibition) at 1uM": 10.6}, {"compound": "O=c1[nH]n(-c2ccc(Cl)cc2)c2ncccc12", "hERG current change (%, negative = inhibition) at 1uM": 9.95}, {"compound": "CC(OC(=O)CCN=C1NS(=O)(=O)c2ccccc21)C(=O)Nc1ccc(F)cc1", "note": "(centres unmarked)", "hERG current change (%, negative = inhibition) at 1uM": 9.8}, {"compound": "CCN1CCN(C(=O)c2ccc(Cl)c(S(=O)(=O)N(C)c3ccccc3)c2)CC1", "hERG current change (%, negative = inhibition) at 1uM": 2.36}, {"compound": "CCOc1ccc(N(CC(=O)NC2CCCCC2)C(=O)CCC(=O)Nc2cc(C)ccn2)cc1", "hERG current change (%, negative = inhibition) at 1uM": 14.3}, {"compound": "CCS(=O)c1ccccc1C(=O)O", "note": "(centres unmarked)", "hERG current change (%, negative = inhibition) at 1uM": 11.3}, {"compound": "CN(C)S(=O)(=O)c1ccc(NC(=O)CN2CCCC2c2ccc3c(c2)OCCCO3)cc1", "note": "(centres unmarked)", "hERG current change (%, negative = inhibition) at 1uM": 2.88}, {"compound": "C=C(C)CSc1nnc(-c2ccccc2)n1N", "hERG current change (%, negative = inhibition) at 1uM": 6.63}, {"compound": "CC1CCN(S(=O)(=O)c2ccc(C(=O)N(C)C3CCS(=O)(=O)C3)cc2)CC1", "note": "(centres unmarked)", "hERG current change (%, negative = inhibition) at 1uM": 7.79}, {"compound": "COc1ccc(OC)c(NC(=O)CSc2sc3c(O)cc(=O)[nH]c3c2C#N)c1", "hERG current change (%, negative = inhibition) at 1uM": 2.98}, {"compound": "Cc1cccc(CN2CCN(CC(=O)N3CCCC3)C2=O)c1", "hERG current change (%, negative = inhibition) at 1uM": 1.37}, {"compound": "CCOc1[nH]n(-c2ccc(Cl)cc2)c(=O)c1C=NCC(=O)OC", "hERG current change (%, negative = inhibition) at 1uM": -13.2}, {"compound": "Cc1ccc(C)c(-n2ccnc2SCC(=O)O)c1", "hERG current change (%, negative = inhibition) at 1uM": 14.4}, {"compound": "COc1ccc(-n2nc(C(=O)NCC(=O)O)c3ccccc3c2=O)cc1", "hERG current change (%, negative = inhibition) at 1uM": 20.5}, {"compound": "CCOc1ccc(C(=O)NCC(=O)OCC(=O)N2CCCCC2)cc1", "hERG current change (%, negative = inhibition) at 1uM": 8.06}, {"compound": "CC1Oc2ccccc2N(CC(=O)N2CCCc3ccccc32)C1=O", "note": "(centres unmarked)", "hERG current change (%, negative = inhibition) at 1uM": -3.51}, {"compound": "O=C(N/N=C/c1cccc(O)c1)c1ccc(NC(=O)C2CCCCC2)cc1", "hERG current change (%, negative = inhibition) at 1uM": 21.1}, {"compound": "COc1cc(OC)c(-c2noc(C(=O)OC(C)(C)C)c2C(=O)OC(C)(C)C)c(OC)c1", "hERG current change (%, negative = inhibition) at 1uM": 11.8}, {"compound": "CCc1cc2c(=O)c(-c3nc4ccccc4[nH]3)coc2cc1OC(=O)N1CCOCC1", "hERG current change (%, negative = inhibition) at 1uM": 6.98}, {"compound": "CN(C)c1nc(N)nc(-c2ccco2)n1", "hERG current change (%, negative = inhibition) at 1uM": 11.2}, {"compound": "COCCN(Cc1cc2ccc(C)cc2[nH]c1=O)S(=O)(=O)c1ccccc1", "hERG current change (%, negative = inhibition) at 1uM": 5.2}, {"compound": "COc1ccc(-c2cc(C(=O)N3CCN(c4ccccc4)CC3)no2)cc1", "hERG current change (%, negative = inhibition) at 1uM": 15.1}, {"compound": "COc1cccc(C(=O)n2c(SC)nc3cc4c(cc32)OCCO4)c1", "hERG current change (%, negative = inhibition) at 1uM": -0.453}, {"compound": "O=C(NNC1=NS(=O)(=O)c2ccccc21)c1ccc([N+](=O)[O-])cc1", "hERG current change (%, negative = inhibition) at 1uM": 2.66}, {"compound": "COc1cccc(C2=NOC(C(=O)NC3CCCCC3)C2)c1", "note": "(centres unmarked)", "hERG current change (%, negative = inhibition) at 1uM": -2.8}, {"compound": "COc1ccc2nc(NC(=O)CSC(C)C(=O)Nc3cc(C)on3)sc2c1", "note": "(centres unmarked)", "hERG current change (%, negative = inhibition) at 1uM": 6.84}, {"compound": "CCOC(=O)C1CCN(C(=O)c2sc3nc(C)nc(N4CCC(C)CC4)c3c2C)CC1", "hERG current change (%, negative = inhibition) at 1uM": -1.96}, {"compound": "Cc1cc(/C=N/NC(=O)c2cccc(F)c2)c(C)n1-c1ccccc1", "hERG current change (%, negative = inhibition) at 1uM": 3.11}, {"compound": "CCOc1ccc(CCNc2cc(C)nc3ncnn23)cc1OCC", "hERG current change (%, negative = inhibition) at 1uM": 3.8}, {"compound": "Cc1ccc(CSCC(=O)N(C)CC(=O)Nc2c(Cl)cccc2Cl)cc1", "hERG current change (%, negative = inhibition) at 1uM": 0.282}, {"compound": "COc1cc(CN2CCNCC2)cc(OC)c1OC.Cl", "hERG current change (%, negative = inhibition) at 1uM": 15.9}, {"compound": "CCC(=O)NC(=S)NNC(=O)c1ccc(OC)cc1", "hERG current change (%, negative = inhibition) at 1uM": 10.3}, {"compound": "CCOC(=O)N1CCN(C(=O)c2cc3ccc(OC)cc3[nH]2)CC1", "hERG current change (%, negative = inhibition) at 1uM": 14.2}, {"compound": "O=C(/C=C/c1ccccc1)NC(=S)N1CCSCC1", "hERG current change (%, negative = inhibition) at 1uM": 3.37}, {"compound": "COc1cc(O)ccc1C(=O)CCc1ccc(O)cc1", "hERG current change (%, negative = inhibition) at 1uM": -11.6}]}]}
